# In all, about 310,000 compounds went through this assay and about 11,000 (3.5%) were called active. Inconclusive means that the source gave no clear call. Such entries were picked first, then a sample of the others. Calls come from the whole dose curve; as a rule, active = well fitted inhibition curve with a large enough effect; inconclusive = small, poorly fitted or top-dose-only effect, or effect the other way; inactive = flat fitted curve, though single readings scatter. No potency is given beside an inconclusive call; the fits are too rough.
# Assay: VP16 counterscreen qHTS for inhibitors of ROR gamma transcriptional activity;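 note: Gal4-VP16 expression switched on by copper sulfate through the metallothionein promoter; nearly all actives have a fitted effect of over 50% in size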
# Settings: Drosophila S2 Gal4-VP16 UAS-luciferase, luminescence, 20 h; activity, negative = inhibition: at 53.6 µM (top of the series)
# % is set by controls: 0 for no effect and ±100 for the full control effect; potency is the fitted concentration of half-maximal effect; tags give direction and shape of the fitted curve.
Compound,Potency,"activity, negative = inhibition"
CCOC(=O)c1c(-c2ccc(C)cc2)csc1/N=C(\C)C1=C(O)c2ccccc2C1=O,inactive,
COCCn1c(SCC#N)nnc1-c1ccccc1O,"inconclusive [activator, single point]",
COc1ccc(CCNCc2csc3nc4ccccc4n23)cc1OC,active: 6.31 µM,
N#CC1=C(N)C(C#N)(C#N)[C@H](c2ccncc2)[C@H]2CN(C(=O)OCc3ccccc3)CC=C12,"inconclusive [inhibitor, single point]",
Cc1cc(C)c2nc3s/c(=C/c4ccccc4)c(=O)n3c2c1,inactive,
COc1ccccc1NCC(=O)N/N=C/c1c(O)ccc2ccccc12,active: 2.82 µM,
COc1cccc(-c2nc(CS(=O)(=O)CC(=O)NC3CCCc4ccccc43)c(C)o2)c1 (stereo not drawn),inactive,
COC(=O)c1ccc(C2NC(=S)N(c3ccccc3)C(C)=C2C(=O)Nc2ccccc2OC)cc1 (stereo not drawn),"inconclusive [inhibitor, single point]",
NNC(=O)CNC(=O)c1ccccc1F,inactive,
CCc1ccc(/C=C2\SC(=S)N(CCCC(=O)Nc3ccc(C(=O)O)cc3)C2=O)cc1,"inconclusive [inhibitor, single point]",
CCC(=O)N[C@@H]1Cc2ccccc2[C@@H](c2ccccc2)C1,active: 8.91 µM,
CCCN(CCC)C(=O)c1ccc2c(=O)n(Cc3ccco3)c(=S)[nH]c2c1,"inconclusive [inhibitor, single point]",
CCOC(=O)OCC1OC(C#CC(C)(C)C)C=CC1OC(=O)OCC (stereo not drawn),,inactive: 4.24% [at 10 µM]
NNC(=O)c1cccn(Cc2cccc(C(F)(F)F)c2)c1=O,"inconclusive [inhibitor, single point]",
N#C/C(=C\c1ccc(O)c(O)c1)C(=O)NCCCc1ccccc1,active: 11.2 µM,
CC(=O)CSc1cc(-c2ccccc2)nc2ncnn12,active: 15.8 µM,
Cc1cc(N/N=C/c2ccc(O)cc2)c2cccc(C)c2n1,active: 17.8 µM,
CCOc1ccc(NC(=S)c2ccncc2)cc1,"inconclusive [inhibitor, single point]",
Cc1ccc(NC(=O)c2ccccc2)cc1,"inconclusive [inhibitor, single point]",
CSc1ccc(C(=O)NCC(=O)O)cc1[N+](=O)[O-],inactive,
CCCC[n+]1c(-c2ccc(Cl)cc2Cl)csc1Nc1ccccc1,"inconclusive [inhibitor, single point]",
O=S(=O)(c1ccccc1)N1CCC[C@@]2(CCN(c3ccncc3)C2)C1,inactive,
CCc1ccc(S(=O)(=O)N/N=C\c2ccc([N+](=O)[O-])o2)cc1,"inconclusive [inhibitor, single point]",
Cc1ccc(SCc2[nH]nc3c2C2(CCSCC2)C(C#N)=C(N)O3)cc1,inactive,
CCn1c(SCC(=O)Nc2cc3oc4ccccc4c3cc2OC)nnc1-c1cccs1,"inconclusive [inhibitor, single point]",

Compound,Potency,"activity, negative = inhibition"
O=S(=O)(c1ccccc1)N1CCC(O)(CSc2ccc(Cl)cc2)CC1,"inconclusive [inhibitor, single point]",
CCCCOc1ccc2c(C)cc(=O)oc2c1OCCCC,"inconclusive [inhibitor, single point]",
CCn1c(=O)c(C(=O)NCc2ccccn2)c(O)c2ccccc21,active: 7.08 µM,
CCCN1CCN(C(=O)C2CCN(S(=O)(=O)c3c(C)noc3/C=C/c3ccc(C)cc3)CC2)CC1,"inconclusive [inhibitor, single point]",
CCOC(=O)N1CCN(C(=S)NC(=O)c2cncc(Br)c2)CC1,active: 2.51 µM,
CCN(CC)C(=S)Nc1ccc(OC(F)F)cc1,inactive,
CNc1ncnc2ccc(-c3ccccc3C)cc12,"inconclusive [inhibitor, single point]",
CC1CCCN(S(=O)(=O)c2ccc3[nH]c4c(c3c2)CCCC4)C1 (stereo not drawn),"inconclusive [inhibitor, partial curve, poor fit]",
CC1=NN(C(N)=S)C(=O)C1N=Nc1ccc([N+](=O)[O-])cc1 (stereo not drawn),active: 1.26 µM,
CCOC(=O)N/N=C/c1ccccc1-c1cc(OC)ccc1OC,inactive,
COc1ncc2nc(C)c(=O)n(C)c2n1,inactive,
Cc1ccc(-c2cn3cc([N+](=O)[O-])ccc3n2)cc1,"inconclusive [inhibitor, single point]",
C=C[C@](C)(O)CCC1C(=C)CCC2[C@@](C)(CO)CCC[C@@]12C (stereo partly drawn),"inconclusive [inhibitor, single point]",
COc1ccc(-c2c(C)nc3c(-c4ccsc4)cnn3c2N)cc1,"inconclusive [inhibitor, single point]",
CCCc1cc(=O)oc2c3c(c4c(c12)OC(C)(C)C=C4)OC(C)C(C)C3O (stereo not drawn),"inconclusive [inhibitor, partial curve, poor fit]",
Cc1ccc(C(C)C)c(OCC(=O)NNC(=O)C(C(C)C)N2C(=O)c3ccccc3C2=O)c1 (stereo not drawn),"inconclusive [inhibitor, single point]",
COc1cc2ccccc2cc1C(=O)NCc1ccncc1,inactive,
Cc1ccc(C(=O)CSc2nsc(C)c2C#N)cc1,"inconclusive [activator, partial curve]",
Fc1cccc(Cl)c1CSc1nnc(CNc2ccccc2)o1,"inconclusive [activator, partial curve]",
COc1ccc(NS(=O)(=O)c2ccc(-c3cnc(C4CC4)o3)cc2)cc1OC,active: 7.08 µM,
COC(=O)Cc1ccc(NC(=O)c2ccc3c(c2)C(=O)N(Cc2cccnc2)C3=O)cc1,"inconclusive [inhibitor, single point]",
O=C(c1ccco1)N1CCN(c2ccc(F)cc2)CC1,"inconclusive [activator, partial curve]",
CCCCNC(=S)NC(=O)c1ccc(Cl)cc1Cl,"inconclusive [inhibitor, single point]",
CN1/C(=C\C(=O)COC(=O)Cn2nnc(-c3ccccc3)n2)C(C)(C)c2ccccc21,active: 28.2 µM,
CCN(CC)CCNc1ncnc2c1sc1nc(N3CCOCC3)c3c(c12)CC(C)(C)SC3,"inconclusive [inhibitor, single point]",

Compound,Potency,"activity, negative = inhibition"
COc1cc(C=O)c(Cl)cc1OCC(N)=O,inactive,
CC(C)(C)CN1C(N)=NC[C@H]1Cc1ccc(O)cc1,"inconclusive [inhibitor, full curve, poor fit]",
Cn1c(=O)[nH]c(=O)c2c1nc(NC1CCCCC1)n2Cc1ccccc1,inactive,
Cn1cc(C(=O)c2ccc(Cl)cc2)cc1-c1nc2ccccc2n1C,"inconclusive [inhibitor, single point]",
COc1ccccc1NC(=O)N1CCCC(c2nc3c(nnn3Cc3ccc(C)cc3)c(=O)[nH]2)C1 (stereo not drawn),"inconclusive [inhibitor, partial curve]",
CC(C)c1ccc(NC(=O)NCc2cccnc2)cc1,"inconclusive [activator, partial curve]",
O=C(N[C@@H](Cc1ccccc1)C(=O)OCc1ccccc1)c1nc[nH]c1C(=O)NC(c1ccccc1)c1ccccc1,active: 5.62 µM,
O=C(N/N=C/c1ccc(N2CCCCC2)o1)c1ccccc1,active: 5.01 µM,
Cc1onc(NC(=O)c2ccc([N+](=O)[O-])o2)c1Br,"inconclusive [inhibitor, single point]",
N#Cc1cn(Cc2cccc(Cl)c2)c2ccccc12,inactive,
CS(=O)(=O)N1CCc2cc(C(=O)OCC(=O)c3ccccc3)ccc21,"inconclusive [inhibitor, single point]",
COc1cc(/C=N/N(c2ccccc2)c2ccccc2)ccc1O,"inconclusive [inhibitor, single point]",
CC(OC(=O)c1ccc(C(C)(C)C)cc1)C(=O)NC1CCCCC1C (stereo not drawn),active: 14.1 µM,
CCOc1ccc(-c2c(C(=O)N/N=C/c3ccoc3)nnn2-c2nonc2N)cc1,"inconclusive [inhibitor, partial curve, poor fit]",
C/C(=N/O)c1cccc(N2Cc3ccccc3C2)c1,"inconclusive [inhibitor, partial curve]",
S=c1[nH]nc(-c2ccc(Br)cc2)n1Cc1ccco1,active: 2.51 µM,
CN(CCc1cnn(C)c1)C(=O)CCc1nnc(CCCc2ccccc2)o1,"inconclusive [activator, single point]",
CC(C)NC(=S)NN(c1ccccc1)c1ccccc1,"inconclusive [inhibitor, single point]",
O=C(CN1C(=O)/C(=C/c2ccc(C(F)(F)F)cc2)Sc2ccccc21)NCCCN1CCOCC1,"inconclusive [inhibitor, single point]",
O=C(Nc1ccc(-c2nc3ccccc3s2)cc1)c1cc(-n2cnnc2)ccc1Cl,"inconclusive [inhibitor, single point]",
COCCn1c(SCC(=O)Nc2cc(Cl)ccc2OC)nc2c(c1=O)SC(C)C2 (stereo not drawn),"inconclusive [inhibitor, single point]",
O=C(COc1ccccc1Br)c1ccc(O)cc1O,"inconclusive [inhibitor, partial curve]",
S=C(NCCc1ccccc1)Nc1ccc(Nc2ccccc2)cc1,active: 12.6 µM,

# — PubChem BioAssay AID2546 (National Center for Advancing Translational Sciences (NCATS), 2010)
